Test results taken from PubChem BioAssay AID360 (National Center for Advancing Translational Sciences (NCATS), 2006).
About 550 (1.1%) of roughly 48,000 compounds were called active. Roughly 4% stayed inconclusive and do not appear here. Rule as the data show it: active = potency below about 15 µM; inconclusive = mostly about 16 µM to 33 µM; inactive = weaker than that. The list shows a part of the results.

What follows are molecules tested against Lysosomal acid glucosylceramidase (Homo sapiens) (UniProt P04062) (assay: Glucocerebrosidase). Details: purified enzyme, resorufin glucoside fluorescence (screen aimed at inhibitors), 20 min.
Outline: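 Normal human glucocerebrosidase (0.2 nM final) was assayed with resorufin β-D-glucopyranoside (30 uM final) in 50mM citric acid/KH2PO4, 10mM sodium taurocholate, 0.01% tween-20, pH 5.9. Compounds were titrated; fluorescence (Ex 548, Em 600) read after 20 min at RT.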
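Also: the screen sought inhibitors.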
Potency is read from the fitted curve at half-maximal effect.

Sequence of UniProt P04062 (P04062 whole entry, looked up): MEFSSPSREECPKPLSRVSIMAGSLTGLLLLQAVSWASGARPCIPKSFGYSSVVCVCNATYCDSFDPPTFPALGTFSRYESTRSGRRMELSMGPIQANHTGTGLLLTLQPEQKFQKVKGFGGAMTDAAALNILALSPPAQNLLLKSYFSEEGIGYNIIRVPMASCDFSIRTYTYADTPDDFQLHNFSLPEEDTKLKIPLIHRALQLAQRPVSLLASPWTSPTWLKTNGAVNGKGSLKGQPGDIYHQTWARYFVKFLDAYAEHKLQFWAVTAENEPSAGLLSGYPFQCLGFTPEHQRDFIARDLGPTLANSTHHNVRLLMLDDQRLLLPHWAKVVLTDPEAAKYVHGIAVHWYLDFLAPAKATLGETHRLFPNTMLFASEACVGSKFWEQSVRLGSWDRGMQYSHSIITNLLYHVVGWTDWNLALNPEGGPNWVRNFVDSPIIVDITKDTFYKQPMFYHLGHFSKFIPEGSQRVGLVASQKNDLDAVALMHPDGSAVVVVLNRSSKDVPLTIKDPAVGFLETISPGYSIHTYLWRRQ

Row | SMILES | Potency
1 | COc1cccc(NS(=O)(=O)c2ccc3[nH]cc(C(=O)NC4CC4)c(=O)c3c2)c1 | inactive: > 76.9 µM
2 | O=C(CSc1nc2cc(Cl)ccc2s1)c1ccco1 | inactive: > 76.9 µM
3 | CC(=O)CSc1nnc(CSc2ncccn2)n1C1CCCCC1 | inactive: > 76.9 µM
4 | COc1cccc(-c2nc(CS(=O)(=O)CC(=O)NCCCN3CCc4ccccc4C3)c(C)o2)c1 | inactive: > 76.9 µM
5 | CCOC(=O)c1c(C)[nH]c(C(=O)OCC(=O)N2CCc3ccccc32)c1C | inactive: > 76.9 µM
6 | CCOc1ccc(C(=O)NCC2CCCO2)cc1 (stereo unspecified) | inactive: > 76.9 µM
7 | Cc1ccc(S(=O)(=O)N2CCN(C(=O)c3cccc(F)c3)CC2)cc1 | inactive: > 76.9 µM
8 | Cc1ccc(-c2nc3ncccn3c2NC2CCCC2)o1 | inactive: > 76.9 µM
9 | O=C(CSc1nnc(-c2ccco2)o1)c1ccc(F)c(F)c1 | inactive: > 76.9 µM
10 | Cc1ccc(NC(=O)c2c(O)c3ccccc3n(C)c2=O)nc1 | inactive: > 76.9 µM
11 | CCCN(CCC)CCNS(=O)(=O)c1ccc2c(c1)oc(=O)n2C | inactive: > 76.9 µM
12 | Cc1cnc(C)c(N2CCC(C(=O)NC(C)c3cccs3)CC2)n1 (stereo unspecified) | inactive: > 76.9 µM
13 | Cn1c(=O)c2c(nc(CN3CCN(C(=O)c4ccco4)CC3)n2CCc2ccccc2)n(C)c1=O | inactive: > 76.9 µM
14 | CCc1ccccc1OCC(=O)NC1CCCC1 | inactive: > 76.9 µM
15 | O=C(CN1C(=O)COc2ccccc21)NCCC1=CCCCC1 | inactive: > 76.9 µM
16 | O=C(CN1CCN(C(=O)N2CCCCC2)CC1)Nc1ccc(F)cc1 | inactive: > 76.9 µM
17 | Cc1ccc(SC(C)c2nc(-c3ccncc3)no2)cc1 (stereo unspecified) | inactive: > 76.9 µM
18 | COC(=O)CC(=O)CSc1nc2c(cc1C#N)CCCCC2 | inactive: > 76.9 µM
19 | Cc1nc2nc[nH]n2c(=O)c1NS(C)(=O)=O | inactive: > 76.9 µM
20 | O=C(CC1=NCCNC(c2ccccc2)C1)c1ccccc1O (stereo unspecified) | inactive
21 | O=C(c1ccccc1)c1cccn1CC(=O)N1CCN(c2ccccc2)CC1 | inactive: > 76.9 µM
22 | CC(C)n1nnnc1SCC(=O)Nc1ccccc1N1CCOCC1 | inactive: > 76.9 µM
23 | Cc1ccc(S(=O)(=O)c2c(N)n(C)c3nc4ccccc4nc23)cc1 | inactive: > 76.9 µM

Row | SMILES | Potency
24 | Nn1c(-c2cccc(Br)c2)n[nH]c1=S | inactive: > 76.9 µM
25 | Cc1n[nH]c(=O)nc1NC1CCCCC1 | inactive: > 76.9 µM
26 | CC(C)Nc1nc(SCC(=O)Nc2ccccc2)nc(N2CCOCC2)n1 | inactive: > 76.9 µM
27 | O=c1cc(-c2ccccc2)c2ccc(O)c(CN3CCCCC3)c2o1 | inactive: > 76.9 µM
28 | CCn1c(COc2ccc(Cl)cc2)nnc1SCC(=O)Nc1ccc2c(c1)OCCO2 | inactive: > 76.9 µM
29 | CCOc1ccccc1CN1CCN(S(=O)(=O)CC)CC1 | inactive: > 76.9 µM
30 | CCOc1ccc(OCc2cccc(C(=O)N3CCOCC3)c2)cc1 | inactive: > 76.9 µM
31 | CCNc1nc(OC)nc(Oc2ccc(=O)n(-c3ccccc3)n2)n1 | inactive: > 76.9 µM
32 | CCn1c(SCC(=O)Nc2ccccc2F)nc2c(c1=O)SC(C)C2 (stereo unspecified) | inactive: > 76.9 µM
33 | COCCn1c(-c2cc(OC)c(OC)c(OC)c2)nc2oc3ccccc3c(=O)c2c1=O | inactive: > 76.9 µM
34 | CC(=O)NCCn1c(SCc2ccccc2F)nc2ccccc2c1=O | inactive: > 76.9 µM
35 | CC(c1ccccc1)n1cc(C(=O)NCCCn2ccnc2)nn1 (stereo unspecified) | inactive: > 76.9 µM
36 | O=C(c1ccccc1CCc1ccccc1)N1CCN(c2ccccn2)CC1 | inactive: > 76.9 µM
37 | c1ccc(CN2CCN(CCN3CCn4c3nc3ccccc34)CC2)cc1 | inactive: > 76.9 µM
38 | O=C(OCn1nnc2ccccc2c1=O)c1ccc2c(=O)n3c(nc2c1)CCC3 | inactive: > 76.9 µM
39 | COc1ccc(C(C(O)C(=O)c2c[nH]c3ccccc23)N2CCN(c3ccccc3)CC2)cc1 (stereo unspecified) | inactive
40 | CC(=O)N(CC(C)(C)CC=C(C)C)c1ccccc1 | inactive: > 76.9 µM
41 | Cc1cc(C)n(-c2ccc(C(=O)OCc3nnc(-c4ccccc4)o3)cc2)n1 | inactive: > 76.9 µM
42 | COCCSc1ccccc1C(=O)NCC1CCCO1 (stereo unspecified) | inactive: > 76.9 µM
43 | CC(C)CCn1c(Cl)nc2c1c(=O)n(C)c(=O)n2C | inactive: > 76.9 µM
44 | CCOc1ccc(OCC)c(NC(=O)CCCN2C(=O)c3cccnc3C2=O)c1 | inactive: > 76.9 µM
45 | Cc1noc(C)c1S(=O)(=O)Nc1ccc(C(=O)NC2CCCCC2)cc1 | active: 4.09 µM
46 | C=CCn1c(SCC(N)=O)nc(C)cc1=O | inactive: > 76.9 µM

Row | SMILES | Potency
47 | COC(=O)CSc1nc2cc(Cl)ccc2c(=O)n1C1CCCC1 | inactive: > 76.9 µM
48 | CC1Cc2nc(SCC(=O)Nc3ccc(F)cc3F)n(C)c(=O)c2S1 (stereo unspecified) | inactive: > 76.9 µM
49 | Cc1ccc(S(=O)(=O)N2CCC(C(=O)OC(C)C(=O)NCc3ccc4c(c3)OCO4)CC2)cc1 (stereo unspecified) | inactive: > 76.9 µM
50 | CC(=O)N1CCN(S(=O)(=O)c2ccc(S(=O)(=O)NC3CC3)cc2)CC1 | inactive: > 76.9 µM
51 | COc1ccc(CNS(=O)(=O)c2ccc3oc(C(=O)O)c(C)c3c2)cc1 | inactive: > 76.9 µM
52 | CC(C)Oc1ccc(NC(=O)c2ccncc2)cc1 | active: 7.88 µM
53 | O=C(C1CCN(c2ccc(N3CCOCC3)nn2)CC1)N1CCN(c2ccc(F)cc2)CC1 | inactive: > 76.9 µM
54 | Cc1ccc(Cn2nnc3c(=O)[nH]c(C4CCN(C(=O)c5cccs5)CC4)nc32)cc1 | inactive
55 | CCOC(=O)N1CCC(N2Cc3cccc(C(=O)NCc4ccc(OC)cc4)c3C2=O)CC1 | inactive: > 76.9 µM
56 | COC(=O)[C@H](C)NC(=O)Nc1ccc(OC)c(OC)c1 | inactive: > 76.9 µM
57 | Cn1nnnc1SCC(=O)NCCc1ccc(Cl)cc1 | inactive: > 76.9 µM
58 | COc1ccc(S(=O)(=O)CCC(=O)NCCc2ccc(S(N)(=O)=O)cc2)cc1 | inactive: > 76.9 µM
59 | CCOC(=O)C(C(=O)OCC)C1N=C(N)N=C2Oc3ccccc3N21 (stereo unspecified) | inactive: > 76.9 µM
60 | Cc1ccc(-c2noc(C3CCCN(C(=O)c4c(F)cccc4F)C3)n2)cc1 (stereo unspecified) | inactive: > 76.9 µM
61 | CCOC(=O)Cn1cc(C(=O)OC)c2ccccc21 | inactive: > 76.9 µM
62 | COc1ccc(C(=O)N2CCC(C(=O)NCc3ccccn3)CC2)cc1 | inactive: > 76.9 µM
63 | CC(C)(C)n1ncc2c(=O)n(CC(=O)Nc3ccc(Cl)cc3)cnc21 | inactive: > 76.9 µM
64 | Cc1ccc(C(=O)CC2(O)C(=O)N(Cc3ccccc3)c3ccccc32)o1 (stereo unspecified) | inactive: > 76.9 µM
65 | O=C(c1cccs1)N1CCCC(c2nc(-c3ccc(F)cc3)no2)C1 (stereo unspecified) | inactive: > 76.9 µM
66 | CC(C)C1N(S(=O)(=O)c2ccccc2)CCN1S(=O)(=O)c1ccccc1 | inactive: > 76.9 µM
67 | O=C(Cn1c(=O)sc2ccccc21)NCc1ccco1 | inactive: > 76.9 µM
68 | Cc1cnn(-c2nc(-c3cccs3)cc(C(F)(F)F)n2)c1 | inactive: > 76.9 µM
69 | CCOC(=O)/C(C(N)=NCc1ccco1)=C(/O)c1ccccc1 | inactive: > 76.9 µM

Row | SMILES | Potency
70 | CCOC(=O)N1CCN(C(=O)CSc2nnc(CNC(=O)c3c(F)cccc3Cl)o2)CC1 | inactive: > 76.9 µM
71 | COc1cc2c(cc1OC)C(C(=O)O)C(c1ccc(C)o1)N(C)C2=O (stereo unspecified) | inactive: > 76.9 µM
72 | Cc1ccc(NC(=O)c2ccc(S(=O)(=O)NCC3CCCO3)cc2)cc1 (stereo unspecified) | inactive: > 76.9 µM
73 | CCCn1c(=O)c2ccccc2n2c(SCC(=O)c3ccccc3)nnc12 | inactive: > 76.9 µM
74 | Cc1nc2ccccc2c(=O)n1/N=C/c1ccc(O)cc1 | inactive: > 76.9 µM
75 | CCC(C)NC(=O)C1CC(c2cccc(OC)c2)=NO1 (stereo unspecified) | inactive: > 76.9 µM
76 | CCOC(=O)N1CCN(Cc2nc3c(c(=O)n(C)c(=O)n3C)n2Cc2cccc(C)c2)CC1 | inactive: > 76.9 µM
77 | COc1ccc(CNc2nc3nc(C)c(Cl)c(=O)n3[nH]2)cc1OC | inactive: > 76.9 µM
78 | Cc1cccc(NC(=O)c2ccccc2OCC(=O)N2CCOCC2)c1C | inactive: > 76.9 µM
79 | CCOC(=O)C(NC(=O)Nc1cccc(C)n1)(OCC(F)(F)F)C(F)(F)F (stereo unspecified) | inactive: > 76.9 µM
80 | Cc1ccc2cc(CN(Cc3cccs3)Cc3nnnn3C(C)(C)C)c3nnnn3c2c1 | inactive: > 76.9 µM
81 | Cc1csc(SCCN2C(=O)c3ccccc3C2=O)n1 | inactive: > 76.9 µM
82 | COC(=O)Cn1c(CN(Cc2ccccc2)Cc2ccccc2)nc2c1c(=O)[nH]c(=O)n2C | inactive: > 76.9 µM
83 | O=S(=O)(NCCc1ccccc1)c1cccc(S(=O)(=O)N2CCOCC2)c1 | inactive: > 76.9 µM
84 | COc1ccccc1-n1c(SCC(N)=O)nnc1-c1ccccc1 | inactive: > 76.9 µM
85 | COc1ccc(-c2nc3cc(NC(=O)c4ccc5c(c4)OCO5)ccc3o2)cc1 | inactive: > 76.9 µM
86 | Cc1cccc(NC(=O)CCn2nc(C)cc2C)c1 | inactive: > 76.9 µM
87 | CCc1ccccc1-n1c(-c2ccncc2)n[nH]c1=S | inactive: > 76.9 µM
88 | O=C(COc1ccc(S(=O)(=O)Nc2ccccc2)cc1)N1CCOCC1 | inactive: > 76.9 µM
89 | CCCNC(=O)c1cccc(COCC(F)(F)C(F)F)c1 | inactive: > 76.9 µM
90 | CCSc1ncc(C#N)c(=O)[nH]1 | inactive: > 76.9 µM
91 | Nc1nonc1-c1nc2ccccc2n1Cc1ccc(F)cc1Cl | inactive: > 76.9 µM
